In all, about 390,000 compounds went through this assay and about 17,000 (4.4%) were called active. The shares of active, inactive and inconclusive entries below differ from those in the screen. Calls come from the whole dose curve; as a rule, active = well fitted inhibition curve with a large enough effect; inconclusive = small, poorly fitted or top-dose-only effect; inactive = no such curve, though single readings can be large or run the other way. Where the call is inconclusive, the potency comes from a doubtful curve fit.
target: Lysine-specific demethylase 4A (Homo sapiens) (UniProt O75164); assay: qHTS Assay for Inhibitors of JMJD2A-Tudor Domain; settings: AlphaScreen JMJD2A-Tudor / H3K4me3 peptide binding; activity change, negative = inhibition: at 114 µM (top of the series); note: nearly all actives have a fitted effect of over 50% in size
Chain of UniProt O75164 (O75164 whole entry, looked up, the tested form may be a part): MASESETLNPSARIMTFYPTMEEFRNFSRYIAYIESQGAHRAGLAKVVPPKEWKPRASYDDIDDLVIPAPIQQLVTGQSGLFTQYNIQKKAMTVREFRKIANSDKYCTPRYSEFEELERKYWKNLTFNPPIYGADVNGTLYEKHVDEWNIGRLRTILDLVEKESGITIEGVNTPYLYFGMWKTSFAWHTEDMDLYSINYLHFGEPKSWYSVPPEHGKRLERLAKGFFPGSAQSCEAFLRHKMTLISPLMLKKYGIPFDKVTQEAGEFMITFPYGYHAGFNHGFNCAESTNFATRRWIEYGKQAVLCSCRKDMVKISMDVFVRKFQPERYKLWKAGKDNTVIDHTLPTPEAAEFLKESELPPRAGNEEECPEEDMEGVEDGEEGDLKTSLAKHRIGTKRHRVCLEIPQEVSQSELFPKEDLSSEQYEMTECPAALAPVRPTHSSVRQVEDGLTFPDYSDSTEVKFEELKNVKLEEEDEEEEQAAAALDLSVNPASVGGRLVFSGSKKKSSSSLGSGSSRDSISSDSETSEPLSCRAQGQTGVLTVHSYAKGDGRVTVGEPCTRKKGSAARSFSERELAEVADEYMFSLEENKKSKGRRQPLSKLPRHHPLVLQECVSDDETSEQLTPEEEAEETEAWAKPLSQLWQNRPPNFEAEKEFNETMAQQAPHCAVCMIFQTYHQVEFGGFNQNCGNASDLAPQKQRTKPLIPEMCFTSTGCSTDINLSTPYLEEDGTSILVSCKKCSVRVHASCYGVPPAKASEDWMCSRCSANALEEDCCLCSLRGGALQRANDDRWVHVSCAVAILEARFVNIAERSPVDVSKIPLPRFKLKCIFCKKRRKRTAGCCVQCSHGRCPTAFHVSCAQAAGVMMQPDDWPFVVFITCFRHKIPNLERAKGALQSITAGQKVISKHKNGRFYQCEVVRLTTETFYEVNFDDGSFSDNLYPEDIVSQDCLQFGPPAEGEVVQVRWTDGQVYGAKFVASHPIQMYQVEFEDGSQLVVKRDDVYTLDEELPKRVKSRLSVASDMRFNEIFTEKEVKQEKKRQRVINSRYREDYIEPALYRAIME
% is set by controls: 0 for no effect and ±100 for the full control effect; potency is the fitted concentration of half-maximal effect; tags give direction and shape of the fitted curve.

Potency, active:
O=C(C1=C(c2ccccc2)C(=O)c2ccccc2C1=O)c1ccccc1 22.4 µM
C=CCOc1ccc(C=CC(=O)c2c(O)c(OC)c(OC)c(OC)c2OC)cc1 14.1 µM
c1ccc(-c2ccc3c(c2)c2c4n3CCN=C4CCC2)cc1 56.2 µM
O=C(N=Nc1c(O)[nH]c2ccccc12)c1cccc(S(=O)(=O)Nc2ccccc2Cl)c1 28.2 µM
COC(=O)Cc1[nH]n(-c2nc3ccccc3s2)c(=O)c1C(C)=Nc1ccc(C)cc1 35.5 µM
CS(=O)(=O)N1CCN(Cc2ccc(C(F)(F)F)cc2)CC1 1.58 µM
O=C(Cc1csc(N2CCOCC2)n1)N/N=C/c1ccc(O)c(O)c1O 10 µM
S=c1[nH]c(-c2ccccc2)cn1/N=C/c1ccncc1 0.708 µM
C=CCNc1nc(C(=O)OCC(=O)Nc2c(Cl)cccc2C(F)(F)F)cs1 35.5 µM

Potency, inconclusive:
COc1ccc(/C(C)=N/NC(=S)NCc2ccco2)cc1 89.1 µM [inhibitor, single point]
COC(=O)CCCC1=CC2=C(c3ccccc3)C(=O)C(C)(OC(=O)C3CCCC3)C(=O)C2=CN1Cc1ccco1 (configuration not stated) 44.7 µM [inhibitor, partial curve]
CN1CCN(C(=S)c2cn(CCOc3ccccc3)c3ccccc23)CC1 79.4 µM [inhibitor, partial curve]
CCOc1ccc2c(c1)C(=O)C(=O)N2CC1COc2ccccc2O1 (configuration not stated) 31.6 µM [inhibitor, partial curve]
Nc1nc(Nc2ccccc2)sc1C(=O)c1ccccc1 63.1 µM [inhibitor, partial curve]
c1ccc(CN2CCC(Nc3nc(-c4cccs4)nc4ccccc34)CC2)cc1 50.1 µM [inhibitor, partial curve]
Cc1c(CN(C)C)c2c(n1C)C(=O)c1ccc(Br)cc1-2 56.2 µM [inhibitor, partial curve]
O=[N+]([O-])c1ccc(NN=Cc2cccc([N+](=O)[O-])c2)cc1 35.5 µM [inhibitor, partial curve, poor fit]
CC(C)c1ccccc1NC(=O)C(Cc1c[nH]c2ccccc12)NC(=O)OC(C)(C)C (configuration not stated) 28.2 µM [inhibitor, full curve]
Cc1ccc(F)c(C2C3C=CCC(c4cccc(-c5ccc(N(C)C)cc5)c4)C3C(=O)N2Cc2ccccc2)c1 (configuration not stated) 10 µM [inhibitor, full curve]
CCN(CC)c1ccc(/C=N/N2C(C)CCCC2C)c(O)c1 (configuration not stated) 31.6 µM [inhibitor, single point]
O=C(NCc1ccccn1)c1ccc2c(=O)n3nc(Nc4ccccc4)sc3nc2c1 89.1 µM [inhibitor, single point]
Clc1ccccc1N=Nc1ccccn1 56.2 µM [inhibitor, partial curve]
Cc1ccc(N2C(=O)[C@@H]3[C@H](C2=O)C2c4ccccc4C=CN2[C@@H]3C(=O)c2ccco2)c(C)c1 (some centres not stated) 50.1 µM [inhibitor, partial curve]
O=C(Nn1cnnc1)c1ccc(Br)s1 100 µM [inhibitor, partial curve]
Cc1ccccc1Oc1nc2c(C)cccn2c(=O)c1/C=C(\C#N)C(=O)Nc1c(C)n(C)n(-c2ccccc2)c1=O 39.8 µM [inhibitor, partial curve]
CN(C)c1ccc(NC(=O)C2C3C=CC(C3)C2C(=O)O)cc1 (configuration not stated) 50.1 µM [inhibitor, partial curve]
CCOC(=O)c1ccc(Nc2c(-c3ccc(OC)cc3)nc3nc[nH]n23)cc1 50.1 µM [inhibitor, partial curve]
Cc1cccc(Nc2nnc(SCc3cn4ccsc4n3)s2)c1 79.4 µM [inhibitor, single point]
CC(=O)c1cccc(NC(=O)c2sc3nc4n(c(=O)c3c2C)CCCCC4)c1 3.98 µM [inhibitor, single point]
O=C(Nc1ccc(Cl)cc1)[C@@H]1[C@@H]2C(=O)N(c3ccc(Cl)cc3)C(=O)[C@@H]2[C@H]2C=CC=NN21 31.6 µM [inhibitor, single point]
CCCCSc1ncc(C(=O)OCC)c(N)n1 3.16 µM [inhibitor, single point]
COc1ccc(/C=C/C(=O)NCC(=O)N=Nc2c(O)[nH]c3ccc([N+](=O)[O-])cc23)cc1 44.7 µM [inhibitor, partial curve]
S=c1[nH]nc(CSc2nc3ccccc3s2)n1Cc1ccccc1 79.4 µM [inhibitor, single point]
COc1cccc(-c2sc3ccc(OC)cc3c2-c2ccc(OCCN3CCCCC3)cc2)c1 15.8 µM [inhibitor, full curve]
O=C(N/N=C/c1cc([N+](=O)[O-])ccc1O)c1ccc2c(c1)OCCO2 39.8 µM [inhibitor, single point]
COc1ccc(-n2nc3c(=O)[nH][nH]c3cc2=O)cc1 63.1 µM [inhibitor, partial curve]
Cc1cc2ncn(S(=O)(=O)c3ccc(S(=O)(=O)N4CCCCCC4)cc3)c2cc1C 100 µM [inhibitor, single point]
CC1CCc2c(sc3nc(SCC(=O)NCc4ccco4)nc(N)c23)C1 (configuration not stated) 79.4 µM [inhibitor, partial curve]
Cc1ccc(OCC(=O)N/N=C/c2cccn2C)cc1C 56.2 µM [inhibitor, partial curve]
Cc1nnc(C)c2c(C)n(C(C)c3ccccc3)c(C)c12 (configuration not stated) 56.2 µM [inhibitor, partial curve]
Clc1ccccc1COc1ccc(/C=N/n2cnnc2)cc1 79.4 µM [inhibitor, partial curve]
COC(Cn1c2c(c3cc(C)ccc31)CCCC2NCc1ccccc1)OC (configuration not stated) 50.1 µM [inhibitor, partial curve]
CCC(CO)Oc1cc(NCc2ccccc2C)c2ncn(C(C)C)c2c1 (configuration not stated) 56.2 µM [inhibitor, partial curve]
COc1ccc(-n2c(CN3CCN(c4ccccc4)CC3)nc3ccc([N+](=O)[O-])cc3c2=O)c(OC)c1 50.1 µM [inhibitor, partial curve]
S=c1[nH]nc(-c2cc(-c3ccccc3)n[nH]2)n1/N=C/c1ccc(Br)s1 50.1 µM [inhibitor, partial curve]
CCO[C@H]1OC(C(=O)N2CCN(Cc3ccc4c(c3)OCO4)CC2)=C[C@@H](c2cn(C(C)=O)c3ccccc23)[C@@H]1CCCO 70.8 µM [inhibitor, single point]

Potency, inactive:
O=C(CCSc1ccccc1Cl)NNC(=O)c1ccncc1
CCN(CC)C(=O)c1[nH]cnc1C(=O)NCC(=O)OCc1ccccc1
CC(SC(C)C(=O)NN=Cc1c[nH]c2ccccc12)C(=O)NN=Cc1c[nH]c2ccccc12 (configuration not stated)
CC(C)c1nccn1S(=O)(=O)c1cccc([N+](=O)[O-])c1
COc1cccc(-c2nnc(SCC3CNC(=O)O3)n2-c2ccc(Cl)cc2)c1 (configuration not stated)
CCNc1nc(NCC)nc(OCC(=O)O)n1
CCOC(=O)C1/C(=N\O)CC(C)(O)C(C(=O)OCC)C1c1ccc(OC)c(OC)c1 (configuration not stated)
C/C(=N\NC(=O)c1nn(C)c(C)c1Br)c1cccc(NC(=O)c2ccoc2C)c1
O=C1CC(N2CCCCCC2)C(=O)N1c1ccc(F)cc1 (configuration not stated)
CCc1ccc(C(C)NC(=O)c2cccs2)cc1 (configuration not stated)
COc1cc(OC)c2c(c1)OC(=O)CC2c1cc(OC)c(OC)c(OC)c1 (configuration not stated)
COc1ccc(CNC(=O)C(=O)NCC(c2ccco2)S(=O)(=O)c2cccs2)cc1 (configuration not stated)
O=c1cc(O)c2ccc(O)cc2o1
COc1ccc(NC(=O)CCC(=O)NCCO)cc1
O=C(CNC(=O)C1CCCCC1)OCCOc1ccccc1
COc1cc(NS(=O)(=O)c2ccc(NC(=S)NC(=O)c3ccco3)cc2)ncn1
COC(=O)c1ccccc1NC(=O)CCCn1c(C)c2cnn(-c3ccccc3)c(=O)c2c1C
CCCn1ccc2c(OCC(=O)Nc3ccccc3C(=O)OCC)cccc2c1=O
O=C(CCCCn1c(=O)c2ccccc2n(Cc2ccc(F)cc2Cl)c1=O)NCCc1ccc(Cl)cc1
COc1ccc(CCNC(=O)c2cc(Nc3ccccc3)nc3ccccc23)cc1OC
CCOC(=O)c1c(C)[nH]c(C(=O)OCC(=O)Nc2cccnc2Cl)c1C
Cn1c(CNC(=O)c2ccco2)nnc1SCC(=O)N1c2ccccc2Sc2ccccc21
CCOC(=O)C1CCN(S(=O)(=O)c2ccc(-c3cc(C(F)(F)F)n(C)n3)s2)CC1
C[C@H]1CN=C(Nc2ccccc2)N1CC1CCCCC1

Activity change, negative = inhibition, inconclusive:
Cc1cccc(N2CCN(Cc3nc(-c4cccc(Cl)c4)oc3C)CC2)n1 -68.8% [inhibitor]
O=C(c1ccc(Sc2cccc(Cl)c2)c([N+](=O)[O-])c1)N1CCN(c2ccccn2)CC1 -52.5% [inhibitor]

Reference: PubChem BioAssay AID504339 (National Center for Advancing Translational Sciences (NCATS), 2011)
